Source: PMC4336329 (PLoS ONE, 2015)
The whole screen tested about 310,000 compounds, of which about 2,200 (0.71%) showed an effect of 50% or more. Effects have a minus sign here. This is one part of the list.

Target: human ether-à-go-go-related gene (hERG) potassium channel (human, UniProt Q12809)
Test: primary screen, population patch clamp on CHO cells stably expressing hERG

Sequence of human ether-à-go-go-related gene (hERG) potassium channel (Q12809 whole entry, looked up): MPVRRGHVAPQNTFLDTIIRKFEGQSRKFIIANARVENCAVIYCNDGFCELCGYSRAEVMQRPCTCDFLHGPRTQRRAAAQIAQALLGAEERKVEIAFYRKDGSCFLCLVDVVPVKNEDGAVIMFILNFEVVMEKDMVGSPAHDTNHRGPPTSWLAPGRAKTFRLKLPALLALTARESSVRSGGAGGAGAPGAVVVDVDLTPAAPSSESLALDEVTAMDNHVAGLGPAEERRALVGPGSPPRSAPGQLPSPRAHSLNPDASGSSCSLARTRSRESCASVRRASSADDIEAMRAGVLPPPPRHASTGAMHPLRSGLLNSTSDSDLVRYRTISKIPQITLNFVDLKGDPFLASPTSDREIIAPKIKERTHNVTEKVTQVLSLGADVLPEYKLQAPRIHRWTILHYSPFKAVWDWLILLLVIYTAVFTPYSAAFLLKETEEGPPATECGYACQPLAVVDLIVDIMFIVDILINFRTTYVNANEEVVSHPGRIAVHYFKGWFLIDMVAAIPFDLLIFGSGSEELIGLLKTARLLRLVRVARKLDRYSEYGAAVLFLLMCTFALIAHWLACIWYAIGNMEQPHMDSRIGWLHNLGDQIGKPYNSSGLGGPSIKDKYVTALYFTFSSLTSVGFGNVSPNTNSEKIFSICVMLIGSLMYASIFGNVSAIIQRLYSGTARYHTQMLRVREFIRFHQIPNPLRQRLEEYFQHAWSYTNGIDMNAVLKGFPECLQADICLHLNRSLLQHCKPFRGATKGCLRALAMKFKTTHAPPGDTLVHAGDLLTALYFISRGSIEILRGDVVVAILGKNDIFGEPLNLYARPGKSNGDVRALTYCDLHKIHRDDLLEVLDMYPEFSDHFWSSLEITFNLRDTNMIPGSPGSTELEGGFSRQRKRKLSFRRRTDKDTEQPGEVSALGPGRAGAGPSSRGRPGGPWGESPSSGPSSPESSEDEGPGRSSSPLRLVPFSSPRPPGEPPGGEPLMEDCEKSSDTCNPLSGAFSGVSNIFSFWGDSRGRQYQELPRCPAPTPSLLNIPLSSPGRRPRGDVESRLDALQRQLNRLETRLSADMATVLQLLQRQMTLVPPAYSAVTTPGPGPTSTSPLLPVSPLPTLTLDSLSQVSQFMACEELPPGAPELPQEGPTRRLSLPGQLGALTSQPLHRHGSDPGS

Row | SMILES | hERG current change (%, negative = inhibition) at 1uM [%]
1 | Cc1ccc(C(=O)NCC(=O)OCC(=O)Nc2ccc3[nH]c(=O)[nH]c3c2)cc1 | 6.2
2 | CCOC(=O)c1cnc2c(-c3ccc(Cl)cc3)c(C)nn2c1N | 19.5
3 | Nc1ccc(N2CCCCC2)c2nonc12 | 3.14
4 | CC(C)(C)c1nnc(N/N=C/c2ccc(Br)cc2)n(N)c1=O | 1.62
5 | COc1ccc(N2CCN(S(=O)(=O)CCNC(=O)c3cc(=O)c4ccccc4o3)CC2)cc1 | 9.6
6 | CC(C(=O)O)N(C(=O)c1ccccc1)c1ccc(F)cc1 (centres unmarked) | 21.1
7 | COc1cccc(NC(=S)NC2CC(C)(C)NC(C)(C)C2)c1 | -3.54
8 | C=CCN1C(=O)C2C3C=CC(C2C1=O)C1C2C(=O)N(CC=C)C(=O)C2C31 (centres unmarked) | 6.09
9 | CNCC[C@H](Oc1cccc2ccccc12)c1cccs1.Cl | 1.74
10 | CCOP(=O)(OCC)C(NC(=O)c1ccc(Cl)cc1)=C(Cl)Cl | 10.1
11 | O=C(O)c1cccc(S(=O)(=O)Nc2ccccc2Cc2ccccc2)c1 | 12.8
12 | COc1ccc(C2CC(c3ccccc3)=NN2C(=O)CCC(=O)O)cc1 (centres unmarked) | 10.8
13 | Nn1c(Cc2cccc3ccccc23)nnc1SCc1c(F)cccc1Cl | 4.2
14 | Cc1occc1C(=O)N(C)Cc1nc(-c2ccc(Cl)cc2)no1 | 14.2
15 | Cc1sc2ncn(CC(=O)NCCCC(=O)N3CCC(C)CC3)c(=O)c2c1C | 12.7
16 | Cc1ccc(OCCCCNC(C)c2ccccc2)c(C)c1 (centres unmarked) | 10.2
17 | Cc1onc(-c2c(F)cccc2Cl)c1C(=O)O/N=C(\N)c1ccc([N+](=O)[O-])o1 | 8.68
18 | Cc1nc2c([nH]c3ccccc32)c(=O)n1N | 15.9
19 | CCNC(=S)N/N=C1\C(=O)c2cccc3cccc1c23 | 13
20 | Cc1ccc(OCCNC(=O)C(=O)NCc2ccco2)cc1 | 19.3
21 | CC1(C)Cc2c(sc(NC(=O)c3ccc(S(=O)(=O)N4CCCCCC4)cc3)c2C(N)=O)C(C)(C)N1 | 12.8
22 | CCNc1nc(NCC)n2c(SCC(=O)Nc3ccccc3C(F)(F)F)nnc2n1 | -0.854
23 | CCC(C)NC(=O)CCn1ccc2cc(S(=O)(=O)N3CCCC3)ccc21 (centres unmarked) | 13.4

Row | SMILES | hERG current change (%, negative = inhibition) at 1uM [%]
24 | CCOCCCNC(=O)C(NC(=O)Cc1cccs1)c1ccc(OC)cc1 (centres unmarked) | 10
25 | CCOC(=O)C1CCN(Cc2ccc(OCc3ccccc3)c(OC)c2)CC1.O=C(O)C(=O)O | 13.1
26 | Cc1cc(Cl)nc(-c2ccccc2O)n1 | 9.23
27 | CC(=O)c1ccc(NC(=O)C(C)Sc2nnnn2C)cc1 (centres unmarked) | -4.63
28 | C/C(=N\NC(=O)c1ccc(C(=O)N/N=C(\C)c2ccco2)o1)c1ccco1 | 3.1
29 | O=C(N/N=C/c1cc(Br)c(O)c(Br)c1O)c1ccc2c(c1)OCCO2 | 8.39
30 | CCc1nc2c3cnn(-c4cc(Cl)ccc4C)c3ncn2n1 | 13
31 | CCOC(=O)C1CCCN(CCC(=O)Nc2ccccc2)C1.Cl (centres unmarked) | 8.12
32 | CSc1nn2cc(CCN3CCOCC3)c(-c3ccc(F)cc3)nc2c1C#N | -0.221
33 | CCc1ccc(CNC(=O)C2CCN(S(=O)(=O)N3CC(C)CC(C)C3)CC2)cc1 (centres unmarked) | 11.9
34 | COc1ccc(C(=O)n2cnc3ccccc32)cc1Br | 9.97
35 | CCn1c(CCCOc2ccc(Cl)cc2Cl)nnc1SCC(=O)Nc1cccc(F)c1 | 22.4
36 | COC(=O)CSc1nnc(CNC(=O)c2ccc(OC)c(OC)c2)n1C | 6.68
37 | CN1CCN(CC(=O)Nc2nc(-c3ccccc3)cs2)CC1 | -4.75
38 | Cn1c(=O)c2c(nc(/C=C/c3cccc(Cl)c3)n2C)n(C)c1=O | 15.2
39 | CCCNC(=O)c1csc(Nc2cccc3ccccc23)n1 | 6.46
40 | CS(=O)(=O)N(CC(=O)N1CCCC1)c1ccc(Cl)c(Cl)c1 | 7.4
41 | Cc1cc(C)n(CC(=O)N2c3ccccc3Sc3ccc(C(F)(F)F)cc32)n1 | 11.2
42 | CC(C)(C)c1ccc(C2=CC(c3ccccc3)n3ncnc3N2)cc1 (centres unmarked) | 10.8
43 | CC(C(=O)NCc1ccc(F)cc1)n1ccc2cc(S(=O)(=O)N3CCCC3)ccc21 (centres unmarked) | 11.4
44 | CN(C(=O)COC(=O)c1n[nH]c(=O)c2ccccc12)c1ccccc1 | 0.565
45 | Cc1cc(C)n(-c2nnc(C)n2/N=C/c2ccccc2O)n1 | -4.6
46 | Cc1nc(Sc2nnnn2-c2ccccc2)c(C#N)c(C)c1C | 9.33

Row | SMILES | hERG current change (%, negative = inhibition) at 1uM [%]
47 | CCc1cc(=O)oc2cc(C)cc(OCC(C)=O)c12 | 11.3
48 | CCN(CC)CCCNC(=O)c1cc(Nc2ccc(OC)cc2)nc2ccccc12 | -8.47
49 | Nc1c(Cl)ncnc1N/N=C/c1ccc2ccccc2n1 | 5.62
50 | COc1ccc(Cl)cc1S(=O)(=O)N(C)CC(=O)NCc1ccccn1 | 11.8
51 | Cn1c(=O)oc2cc(S(=O)(=O)NCCC(=O)N3CCc4ccccc4C3)ccc21 | -1.84
52 | COc1ccc([C@@H]2C[C@H]3CN(Cc4ccccc4OC)C(=O)[C@]34CCCN24)cc1C | -0.567
53 | O=C(Cn1c(=O)oc2cc(S(=O)(=O)N3CCCCC3)ccc21)N1CCc2ccccc2C1 | 6.3
54 | Cn1c(Cc2cccs2)nnc1SCC(=O)Nc1ccc(F)cc1F | 8.91
55 | COc1ccccc1NCc1nnc(SCC(=O)N/N=C/c2ccco2)n1-c1ccc(Cl)cc1Cl | 11.8
56 | COc1ccc(N2CCN(C(=O)c3ccc(S(=O)(=O)N4CCCC4)cc3)CC2)cc1 | 13.2
57 | CN(C)S(=O)(=O)N1CCN(C(=O)c2ccccc2Cl)CC1 | 3.56
58 | COc1ccccc1C(C(=O)NC1CCCCC1)N(C(=O)c1csnn1)C1CC1 (centres unmarked) | 4.88
59 | O=C(c1ccccc1)n1c(=S)nc2ccccn21 | 10.3
60 | CSc1ccc(/C=C/C(=O)OCC(=O)N(C)CCC#N)cc1 | -2.52
61 | CCS(=O)(=O)c1nc2ccccc2n1CC(=O)N1CCCCC1 | 15.3
62 | CC(C)(C)N/N=C1\CC(c2ccccc2)Oc2ccccc21.Cl (centres unmarked) | 5.81
63 | O=C1CCC(=O)N1c1ccc(NCc2ccccc2Cl)c([N+](=O)[O-])c1 | 3.68
64 | CC(NC(=O)Cn1cnnn1)c1cccc(C(F)(F)F)c1 (centres unmarked) | 15.1
65 | O=C(C[n+]1ccccc1)Nc1ccccc1[N+](=O)[O-].[Cl-] | 21.9
66 | COc1ccc(CN2C3CCCC2CC(NC(=O)Nc2ccccc2)C3)cc1 (centres unmarked) | -64
67 | O=C(NCc1ccccc1)NS(=O)(=O)c1ccccc1Cl | 5.09
68 | O=C(c1ccsc1)N1CCCC(Nc2cccc(F)c2)C1 (centres unmarked) | 3.86
69 | CCCOC(=O)CCn1c(=S)oc2ccccc21 | 9.89

Row | SMILES | hERG current change (%, negative = inhibition) at 1uM [%]
70 | O=[N+]([O-])c1ccc(OCCO)c(P(=O)(c2ccccc2)c2ccccc2)c1 | 11.9
71 | COc1ccccc1CNC(=O)C1CCN(C(=O)c2sccc2-n2cccc2)CC1 | 16.2
72 | O=C(Cn1c(COc2ccccc2)nc2ccccc21)Nc1cc(Cl)ccc1Cl | 11.5
73 | C#CC(=O)N(c1cc(OC)ccc1OC)C(C(=O)NC1CCCC1)c1cccs1 (centres unmarked) | 4.6
74 | COc1cc2sc3ccc(C#Cc4ccc(N)cc4)cc3c(=O)c2cc1OC | 15.5
75 | CSCCC(NS(=O)(=O)c1ccc2c(c1)OCCO2)C(=O)N(C)Cc1ccc(F)cc1 (centres unmarked) | 11.5
76 | CN(C)CC/C=C1\c2cc(F)ccc2CSc2ccccc21.O=C(O)/C=C\C(=O)O | -0.682
77 | COc1ccccc1C(=O)C1CCCN(C(=O)c2snnc2C)C1 (centres unmarked) | 12.9
78 | Cc1c(Cl)cccc1NC(=S)N(CCN(C)C)C(C)c1ccco1 (centres unmarked) | -6.45
79 | CC1=C(C(=O)OCCC(C)C)C(c2ccc3c(c2)OCO3)NC(=O)N1 (centres unmarked) | 9.63
80 | O=c1[nH]cc(NCCc2ccccc2)c(=O)[nH]1 | 10.9
81 | COc1ccccc1/C=C/C=N/NC(=O)CCn1cnc2ccccc21 | 3.08
82 | Cc1ccc(-c2nn(-c3ccccc3)cc2/C=C2\SC(=S)N(CCCCCC(=O)O)C2=O)o1 | 12
83 | CC1CN(C(=O)Nc2ccc(F)cc2F)CC(C)O1 (centres unmarked) | -1.61
84 | Cc1nnsc1-c1c(C(=O)N2CCOCC2)c(C)nn1-c1ccccc1 | 10.1
85 | COC(=O)c1c(C)[nH]c(C(=O)OC(C)C(=O)N(C)C2CCCCC2)c1C (centres unmarked) | 3.68
86 | CC(Cc1c[nH]c2ccccc12)NC(=O)OCCCl (centres unmarked) | 16.9
87 | C=CCn1c(CNC(=O)CCC)nc2ccccc21 | 15.7
88 | C=CCn1c(=O)[nH]c2cc(C(=O)N3CCN(c4ccc(C(C)=O)cc4)CC3)ccc2c1=O | -0.651
89 | CC1CN(S(=O)(=O)c2cccc(C(=O)OCC(=O)NCc3ccccc3)c2)CC(C)O1 (centres unmarked) | 5.46
